According to PubChem BioAssay (NCATS):
Inconclusive results, whose numbers are uncertain, are shown with a selection of clear calls. No potency is given beside an inconclusive call; the fits are too rough. Active and inactive are the calls of the source. Calls follow the shape of the dose curve; as a rule, active = well fitted inhibition curve with a large enough effect; inconclusive = small, poorly fitted or top-dose-only effect; inactive = flat fitted curve, though single readings scatter.
Potency is read from the fitted curve at half-maximal effect; tags tell the direction and shape of the fitted curve.

These molecules were tested against Aldehyde dehydrogenase, mitochondrial (Homo sapiens) (UniProt P05091) (assay: qHTS for Inhibitors of the Aldehyde Dehydrogenase Family (ALDH2) Primary screen (AID 2061308; also: nearly all actives have a fitted effect of over 55% in size;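 as to activity change, negative = inhibition: plate controls were vehicle for no effect and reference inhibitor for full effect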)). Conditions: ALDH2 enzyme inhibition qHTS, 1536-well; series mostly up to 56 µM.
With `O=C(NC1CCCc2c1cnn2-c1ccc(F)cc1F)c1cccs1` (stereo not given) the Potency was inconclusive [inhibitor, partial curve, poor fit].
With `C/C=C(/C)C(=O)O[C@H]1C[C@]2(C)O[C@@H]2[C@@H](OC(C)=O)[C@@]2(C)CC[C@@](O)(C(C)C)[C@H]12` the Potency was “inactive”.
`CC(C)Oc1ccc(-c2cnc3c(-c4ccnc5ccccc45)cnn3c2)cc1` was tested, and the Potency was “inactive”.
`N#Cc1ccc(N2N=C3c4ccc(C(=O)O)cc4CC[C@@H]3[C@@H]2C2CCCC2)cc1Cl` was tested, and the Potency was “inactive”.
For `Cn1nnc(-c2ccc(-c3ccc(N4C[C@H](COP(=O)(O)O)OC4=O)cc3F)cn2)n1`, the Potency was inconclusive [inhibitor, partial curve, poor fit].
In the case of `O=C(O)c1ccc(NC(=O)[C@H](CC2CCCC2)n2cnc(C(F)(F)F)c2)nc1`, the Potency is reported as “inactive”.
`Cc1ccccc1N1CCN(S(=O)(=O)C[C@]23CC[C@H](C[C@@H]2NC(=O)[C@@H](N)CCS(C)(=O)=O)C3(C)C)CC1` was tested, and the Potency was “inactive”.
`CC1(C(=O)O)CCCC2(C)C1CCC13CC(CCC21)C1(CO)OC31` (stereo not given) was tested, and the Potency was “inactive”.
In the case of `Cc1ccc(-c2cc(C(=O)Nc3ccc(S(=O)(=O)NCc4nccs4)cc3)c3ccccc3n2)cc1C`, the Potency is reported as “inactive”.
In the case of `CC1CCC2(C1)N=C(Nc1nc3ccccc3o1)NC1=C2C(=O)CCC1` (stereo not given), the Potency is reported as “inactive”.
With `CCCC(C)NC(=O)Cn1nc(-c2ccc(C)cc2)ccc1=O` (stereo not given) the Potency was inconclusive [inhibitor, partial curve].
`Cc1c(CN(C)C(=O)/C=C/c2cnc3c(c2)CCC(=O)N3)oc2ccccc12` was tested, and the Potency was inconclusive [inhibitor, single point].
With `CC1=C(C)C(=O)OC(C(C)(O)C2CCC3C4CC=C5CC(OC6OC(COC7OC(CO)C(O)C(O)C7O)C(O)C(O)C6O)CC(O)C5(C)C4CCC32C)C1` (stereo not given) the Potency was “inactive”.
`CC(C)(C)OC(=O)N1CCN(c2ccc(NCc3cc(-c4ccc(C#N)cc4)co3)cc2)CC1` was tested, and the Potency was inconclusive [inhibitor, full curve].
In the case of `C#Cc1cccc(Nc2nc3cc(C(=O)O)ccc3c3cncnc23)c1`, the Potency is reported as inconclusive [inhibitor, single point].
For `O=C1CCCC2=C1C(c1ccn[nH]1)N=C(Nc1nc3ccccc3o1)N2` (stereo not given), the Potency was inconclusive [inhibitor, partial curve, poor fit].
For `FC(F)(F)c1cc(-c2ccc(CNc3nc(C4CCCC4)nc4ccccc34)cc2)ccn1`, the Potency was “inactive”.
With `O=C(O)Cc1cn([C@@H]2O[C@H](CO)[C@@H](O)[C@H](O)[C@H]2O[C@@H]2O[C@H](CO)[C@@H](O)[C@H](O)[C@H]2O)c2ccccc12` the Potency was “inactive”.
With `C[C@@H]1O[C@@H](O[C@H]2[C@H](O[C@H]3[C@H](O[C@H]4CC[C@@]5(C)C(CC[C@]6(C)C5CC=C5[C@@H]7CC(C)(C)CC[C@]7(C(=O)O[C@@H]7O[C@H](CO)[C@@H](O[C@@H]8O[C@@H](C)[C@H](O)[C@@H](O)[C@H]8O)[C@H](O)[C@H]7O)CC[C@]56C)C4(C)C)OC[C@H](O)[C@@H]3O)O[C@H](CO)[C@@H](O)[C@@H]2O)[C@H](O)[C@H](O)[C@H]1O` (stereo not given in full) the activity change, negative = inhibition was inactive: 3.25% [at 11.2 µM].
For `FC(F)(F)c1ccc(-c2nc(NCc3ccc(-c4cccnc4)cc3)c3ccccc3n2)cc1`, the Potency was “inactive”.
In the case of `Cc1ccc(N2CCN(S(=O)(=O)c3ccc4c(c3)CC(=O)N4)CC2)cc1`, the Potency is reported as inconclusive [inhibitor, full curve, poor fit].
For `Cn1c2ccsc2c2cnn(Cc3ccc(F)cc3)c(=O)c21`, the Potency was “inactive”.
With `CN(C)c1cccc(-c2ncnc(N3CCC(C(N)=O)CC3)n2)c1` the Potency was inconclusive [inhibitor, partial curve, poor fit].
In the case of `O=C(O)c1ccc(O)c2ncc(-c3n[nH]nc3-c3ccccc3)cc12`, the Potency is reported as inconclusive [inhibitor, partial curve].
In the case of `CCOc1ccc(CCNC(=O)CN(C)C)cc1OCC`, the Potency is reported as inconclusive [inhibitor, partial curve, poor fit].
In the case of `Cc1c(C(=O)O)[nH]c2c1C(=O)CC(c1ccco1)C2` (stereo not given), the Potency is reported as inconclusive [inhibitor, partial curve, poor fit].
`C/C=C(/COC(=O)/C(C)=C/C)C(=O)OC/C=C/c1ccc(OC)cc1` was tested, and the Potency was inconclusive [inhibitor, full curve, poor fit].
In the case of `CCOC(=O)c1[nH]c2c(c1C)CCC(c1ccco1)C2` (stereo not given), the Potency is reported as inconclusive [inhibitor, full curve, poor fit].
For `CNc1oc(-c2cccs2)nc1C#N`, the Potency was “inactive”.
`CC1(C)CC[C@]2(C(=O)O)CC[C@]3(C)C(=CCC4[C@@]5(C)C[C@@H](O)[C@H](O)C(C)(C)C5CC[C@]43C)[C@@H]2[C@@H]1O` (stereo not given in full) was tested, and the Potency was “inactive”.
`CNc1oc(-c2cccc3ccccc23)nc1C(=O)Nc1cccc(C#N)c1` was tested, and the Potency was inconclusive [inhibitor, partial curve, poor fit].
In the case of `O=C1CSc2ccccc2N1Cc1cccc(C(F)(F)F)c1`, the Potency is reported as “inactive”.
In the case of `Cc1ccc(N[S+](=O)([O-])c2cc3c(cc2CCc2ccccc2)NC(=O)CO3)cc1C`, the Potency is reported as inconclusive [inhibitor, partial curve, poor fit].
For `Cc1ccc(-c2ccc(=O)n(CC(=O)NCCCc3ccccc3)n2)cc1`, the Potency was inconclusive [inhibitor, partial curve, poor fit].
With `CCOc1c2c(c(OCC)c3ccccc13)C(=O)N(c1ccc(CC(=O)NS(=O)(=O)c3ccccc3)cc1)C2` the Potency was “inactive”.
With `COc1cc(O)c([C@H](CC(=O)N2CC(C)CC(C)C2)c2ccc3c(c2)OCO3)c(OC)c1` (stereo not given in full) the Potency was inconclusive [inhibitor, partial curve].
For `CCC(C)C(=O)O[C@H]1[C@@H](O[C@H]2O[C@H](CO)[C@@H](O)[C@H](O)[C@H]2O)O[C@H](CO)[C@@H](O)[C@@H]1O` (stereo not given in full), the Potency was “inactive”.
`c1nc(N2CCC(N3CCCC3)CC2)c2cc(-c3ccc4c(c3)OCO4)ccc2n1` was tested, and the Potency was “inactive”.
In the case of `CC(C)c1cccc(-n2cnc3cc(C(=O)N4CCCCC4)ccc32)c1`, the Potency is reported as inconclusive [inhibitor, partial curve, poor fit].
For `COc1cc(O)c(C(CC(=O)N2CC(C)CC(C)C2)c2ccc(C)cc2)c(OC)c1` (stereo not given), the Potency was inconclusive [inhibitor, partial curve, poor fit].
